Reference: publication PMC12136788
This is one part of the list.

B1: chr17:30248266:30248367:-|3pUTR|ENSG00000108578|msi1|total|mutant (ssRNA)
RNA: GGGAGUUCUACAGUCCGACGAUCUUGGGUGAGAACAACCAAAAUCUUAUCAUGGUCUCAGUCAUAAUCAUCCGGGGGAACUCCCGCCAAAUGGUUUAACUUCUGCCUGUGGAACUGGGGAUUGGGUGGGCAGGAAAAGGUGAUCAACAGAGGAUUGAGCAUCA
B2: ENSG00000124225:stop:overlap|stop_codon|ENSG00000124225|stop_codon|NA|stop_codon (ssRNA)
RNA: GGGAGUUCUACAGUCCGACGAUCCCCUAGAGAGCGCAGCCAUCUGGAGCAAAGAGAAGGAUAAACAGAAAGGACACCCUCUCUAGGGUCCCCAGGGGGGCCGGGCUGGGGCUGCGUAGGUGAAAAGGCAGAACACUCCGCGCUCAACAGAGGAUUGAGCAUCA
B3: ENSG00000070961:be:win_5401|3pUTR|ENSG00000070961|bound_else_gene|NA|bound_elsewhere_windowed (ssRNA)
RNA: GGGAGUUCUACAGUCCGACGAUCCUAUAACUGAGAGUGCUGACCAAGCAAAGAAACAUUUAGUUGAUGGUGCUUGAUAUUUUUGGUGGGUGGGGGAAAUCUUUUUCUCACCAUCAAAUCUUUGCAGUAAUCCUCUGCAGGUCUCAACAGAGGAUUGAGCAUCA
B4: chr3:154315110:154315224:-|CDS|ENSG00000174953|unk|total|mutant (ssRNA)
RNA: GGGAGUUCUACAGUCCGACGAUCUCAGAGAACAAACUUGACAUCCAGGAAAAGAAGUUGAUAAAUCAAGAAAAAAAAAUGUUCCGAAUCAGGAACAGAUCAUAUAUUGACCGAGAUUCUGAGUAUCUCUUGCAAGAAAAUGAACAACAGAGGAUUGAGCAUCA
B5: chr19:1925605:1925706:+|3pUTR|ENSG00000227500|msi1|total|mutant (ssRNA)
RNA: GGGAGUUCUACAGUCCGACGAUCUUUGGACACCCCAGGCUGCCACCCCUCCCCACCCGUUCACCCCCAGGAUGCUGUUGCUGCCGGACGCCUGCUGCCCUGGAGCCCUCCCCAGGAUGUGAGCCAGUCCCCUCGCUGGUACGGCAACAGAGGAUUGAGCAUCA
B6: chr6:38153770:38153871:+|3pUTR|ENSG00000156639|msi1|total|mutant (ssRNA)
RNA: GGGAGUUCUACAGUCCGACGAUCGGUGGACAGGAUCAGGAUUCCCUUGAAAGCCCAGGCAGGGUGAGCAGUCCCAGUGGUCCCCGUGCCGCAUCAGAUCCAGGUGGGUGAGGGCAGGAGGCCCCUGCGGAGGCAGCGUGGAUCCAACAGAGGAUUGAGCAUCA
B7: chr2:60940222:60942394:-|three_prime_utr|ENSG00000162927|control|control|control (ssRNA)
RNA: GGGAGUUCUACAGUCCGACGAUCGUAACAUCUCAGGAUCUAUAUAUGUGUAUAUUUUGUGUUAAAUUGUUCCAAGGAUGUCUUAGGAUUUUUCUCAUUCCCUCUUUCACCCCCACAAACCAAACUAUGAAUAAUGAAAUAAUUCAACAGAGGAUUGAGCAUCA
B8: ENSG00000198589:be:win_4201|CDS|ENSG00000198589|bound_else_gene|NA|bound_elsewhere_windowed (ssRNA)
RNA: GGGAGUUCUACAGUCCGACGAUCGAAGCCUCUGUGACAUUUUUGCAGAGGCUAAUUAGCCUUGUGGAUGUGCUUAUAUUUGCAAGUUCUCUUGGCUUUACUGAAAUUGAAGCUGAAAAAAGUAUGUCAUCUGGAGGAAUUUUGCAACAGAGGAUUGAGCAUCA
B9: chr1:6522505:6522606:-|3pUTR|ENSG00000162408|msi1|total|mutant (ssRNA)
RNA: GGGAGUUCUACAGUCCGACGAUCCUGGGAUUACAGGCGUGAGCCACUGCGCCUGGCCUGAAGCUAUUCUUUACAAAAGCUCUCCGUUUUUGUUUGUUUGUUUGUUUUUUUCUUUUGCGACGGACUCUCUGUCGCCAAGGCUGGCAACAGAGGAUUGAGCAUCA
B10: chr2:30159184:30159288:+|3pUTR|ENSG00000119801|unk|total|mutant (ssRNA)
RNA: GGGAGUUCUACAGUCCGACGAUCAAAAUCUGGGCUGUCCGAGUGAAAAAGUGUGUUUUAUGUCAAUUGUGAAAGGAAAAUGUCCGGAGUAUGGUUUUUAAACUUGGGCUUCAUUUUAAACUUUUUUUUUUAAACCCAGUUAUUCAACAGAGGAUUGAGCAUCA
B11: chr19:4361374:4361475:-|3pUTR|ENSG00000141985|msi1|FALSE|unique (ssRNA)
RNA: GGGAGUUCUACAGUCCGACGAUCCAGGACCCCACACUUGGGUGGGGGGGCUUAUCUGGGUGGGUGGGGAUGCCUGUUUACACUAGCGCUGACUCCCAACGGUGACGGCUCCCUUCCCCACUCCAUGGCGCCAGCCUCCUCCCCCAACAGAGGAUUGAGCAUCA
B12: chr17:81557321:81557422:-|3pUTR|ENSG00000182446|msi1|total|mutant (ssRNA)
RNA: GGGAGUUCUACAGUCCGACGAUCAGCAUUUCCCUUACUCUGAAGUUCCGGCAUUCACAUCAUUCAUGUUUUCUUUUGUCUUUCCGCUAAAGGAAAAGCAUUGGCGAUUUGUCUGAUUCUGGUUUUGAGUUACUCUUUGUUCAGCAACAGAGGAUUGAGCAUCA
B13: chr6:105096826:105097152:-|3pUTR|ENSG00000112276|msi1|total|mutant (ssRNA)
RNA: GGGAGUUCUACAGUCCGACGAUCACUUGCAACCCCGUUUUAAAAUACAUGAGGAUUUUAUGAAAGCUUUAUACAGACAUUUACCGGAAACUCAUUCUUUGAUUUCCGGUGCCAUUUAAAUUGAUAACACUUACUUUAUAAAAACAACAGAGGAUUGAGCAUCA
B14: chr9:101424453:101424812:-|three_prime_utr|ENSG00000136872|control|control|control (ssRNA)
RNA: GGGAGUUCUACAGUCCGACGAUCGCUUGACUUUCCAACACGGAGAAGCAUUGUUUUCUUUGGGCCAAGAAGGUAUCUACCGAUAGUGUCUAUUAGGCAUUUGAAAAUGUGGCAGUAGAGGUCAGUAUGAGGAUUGAGGCUAGACAACAGAGGAUUGAGCAUCA

molecular target: MSI1 full-length (mouse, UniProt Q61474 1-362); test: nsRBNS (natural sequence RNA bind-n-seq); RBNS binding buffer (assumed for nsRBNS): 25 mM Tris pH 7.5, 150 mM KCl, 3 mM MgCl2, 0.01% Triton X-100, 500 ug/ml BSA, 20 U/ml SUPERase-In, 4 C; UNK is unkempt and MSI1 is Musashi-1; names of the RNAs are library labels; protein concentration not given here; high values mean tight binding
Chain of UniProt Q61474 (Q61474 whole entry): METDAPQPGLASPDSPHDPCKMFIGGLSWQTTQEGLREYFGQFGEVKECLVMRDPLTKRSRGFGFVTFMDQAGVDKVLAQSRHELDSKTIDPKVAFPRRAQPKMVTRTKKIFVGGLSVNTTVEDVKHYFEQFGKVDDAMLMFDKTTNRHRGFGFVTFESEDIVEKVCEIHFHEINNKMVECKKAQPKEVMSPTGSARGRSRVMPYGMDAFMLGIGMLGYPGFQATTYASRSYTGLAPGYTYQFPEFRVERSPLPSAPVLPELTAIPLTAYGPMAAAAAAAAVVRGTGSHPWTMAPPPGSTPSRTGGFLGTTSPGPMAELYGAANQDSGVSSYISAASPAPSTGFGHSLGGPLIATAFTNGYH

| Binder | binding signal |
| --- | --- |
| B1 | 0.588 enrichment R |
| B2 | 0.737 enrichment R |
| B3 | 0.43 enrichment R |
| B4 | 0.354 enrichment R |
| B5 | 0.693 enrichment R |
| B6 | 0.312 enrichment R |
| B7 | 1.32 enrichment R |
| B8 | 0.239 enrichment R |
| B9 | 0.396 enrichment R |
| B10 | 0.603 enrichment R |
| B11 | 0.54 enrichment R |
| B12 | 0.313 enrichment R |
| B13 | 1.7 enrichment R |
| B14 | 0.53 enrichment R |
